The results in this text go back to article PMC10668032.

The other results are listed elsewhere or left out. At the low end of the ranking the order means little.

The target in the experiment is SIX1-Q177R homeodomain (UniProt Q15475). Nature of the experiment: universal protein binding microarray. The note with it: Universal all-10-mer PBM (8x60K, AMADID 030236), 300 nM GST-tagged protein, Alexa Fluor 488 anti-GST; buffer, salt, pH and temperature not stated; high values mean tight binding; most listed sequences are background and not binding sites; double strand, one strand shown.
Consider AAGAATAC, for which the binding signal was -0.059 E-score.

Regarding CGCCCACG, the binding signal came out at 0.113 E-score.

Consider ACCTTGTA, for which the binding signal came out at 0.203 E-score.

For the sequence CCGTACGA, the binding signal is -0.0857 E-score.

Turning to GTACAAAA, the binding signal is 0.0208 E-score.

As to GCGAGGCA, the binding signal was -0.0688 E-score.

Take CTTCAAAA: the binding signal is -0.0349 E-score.

In the case of ACTCTACG, the binding signal worked out at 0.131 E-score.

For ATACAAAA, the binding signal is 0.00381 E-score.

Take TAAAAATA: the binding signal is -0.0578 E-score.

On to AAGTGGAT, for which the binding signal stood at 0.023 E-score.

In the case of AACCGAGA, the binding signal is -0.125 E-score.

Consider AATCCCAA, for which the binding signal was -0.185 E-score.

With GGAAACAA, the binding signal is -0.00328 E-score.

For the sequence ACCATTTA, the binding signal stood at 0.0524 E-score.

In the case of AATATCTC, the binding signal is -0.171 E-score.

For the sequence ATTTTTCG, the binding signal was -0.0874 E-score.

For the sequence CACCACGG, the binding signal amounted to 0.226 E-score.

As to AAATCACA, the binding signal was -0.0284 E-score.

Take GATTTTAA: the binding signal is -0.14 E-score.

On to CGTCTCAC, for which the binding signal was determined as 0.0654 E-score.

ATAGCCTC: the binding signal is -0.0423 E-score.

AAAAAAAC: the binding signal is -0.192 E-score.

Turning to ACCTAATA, the binding signal came out at 0.0458 E-score.

As for TTGCGAAA, the binding signal is -0.0519 E-score.

In the case of AAAGTTCA, the binding signal is -0.185 E-score.

Turning to CCAGTCGA, the binding signal was -0.0886 E-score.

For the sequence AAGTTACC, the binding signal is -0.114 E-score.

As for TCTGCTCA, the binding signal is -0.0548 E-score.

Consider ATTGGCTC, for which the binding signal is -0.19 E-score.

CGTCTTGA: the binding signal was -0.0735 E-score.

Consider GGATAACA, for which the binding signal worked out at 0.204 E-score.

Regarding ACCCTCGC, the binding signal turned out to be 0.0865 E-score.

In the case of CATCATAG, the binding signal was -0.165 E-score.

CAGTACAG: the binding signal was -0.0112 E-score.

Regarding ACGCTAGG, the binding signal amounted to 0.0425 E-score.

As for ATAGGCTA, the binding signal is -0.092 E-score.

Regarding CGTCGGAG, the binding signal is 0.00628 E-score.

As to CCCGCAAC, the binding signal turned out to be 0.123 E-score.

Take AGTGCCAC: the binding signal is -0.0736 E-score.

In the case of CTTATTTA, the binding signal was -0.193 E-score.

As for CACGTATG, the binding signal was found to be 0.149 E-score.

In the case of GTCTGAAC, the binding signal is -0.0732 E-score.

In the case of CCGCTGCA, the binding signal was -0.208 E-score.

As for TCACAGGA, the binding signal is -0.0647 E-score.

Regarding AGGACTTA, the binding signal was -0.29 E-score.

TAAGCAAA: the binding signal was -0.249 E-score.

Regarding TAACCGAA, the binding signal was -0.0221 E-score.

As for CTCGCTGC, the binding signal is -0.141 E-score.

Take AGTTAATA: the binding signal is 0.0894 E-score.

In the case of AGATGCCA, the binding signal is -0.312 E-score.

For the sequence AAGAACTG, the binding signal was -0.169 E-score.

ACAGAATC: the binding signal is -0.0446 E-score.

Regarding ACGTCATG, the binding signal is -0.119 E-score.

For the sequence GGATCGAA, the binding signal stood at 0.0613 E-score.

Take AATCGACT: the binding signal is -0.0748 E-score.

For AATAGTTG, the binding signal was -0.0781 E-score.

Take CGTAGAAA: the binding signal was -0.106 E-score.

Regarding GAGTTAGA, the binding signal was -0.068 E-score.

As to CTTTTGCA, the binding signal was -0.0694 E-score.

Consider AGGCACTG, for which the binding signal is -0.0499 E-score.

Turning to AACTGCCG, the binding signal was -0.183 E-score.

As for CCCAACAA, the binding signal came out at 0.199 E-score.

In the case of CGAAATCA, the binding signal was -0.254 E-score.

As for CGGGCACC, the binding signal turned out to be 0.0787 E-score.

Take CCGGGTTA: the binding signal was 0.2 E-score.

In the case of GTTCTGAA, the binding signal is 0.0775 E-score.

For AGCTGACA, the binding signal is 0.0626 E-score.

Regarding CACGATGG, the binding signal is 0.137 E-score.

As to CAGAATAA, the binding signal was -0.0872 E-score.

With ACATTTAA, the binding signal is -0.155 E-score.

As to ATAGATAT, the binding signal was -0.143 E-score.

Consider GTGTTCAA, for which the binding signal is 0.386 E-score.

Take ACTTACCT: the binding signal is -0.0763 E-score.

As to CAGTAACC, the binding signal was -0.0463 E-score.

Take AAATCATG: the binding signal was -0.00357 E-score.

For AATCTACC, the binding signal was -0.0508 E-score.

GCGGCCGC: the binding signal was -0.208 E-score.

In the case of ATGCTCTA, the binding signal is -0.25 E-score.

On to CAATTGGA, for which the binding signal was -0.147 E-score.

Regarding GGAACGAC, the binding signal is -0.0716 E-score.

On to ACAAAGCC, for which the binding signal is -0.101 E-score.

In the case of ACCCGCGC, the binding signal is 0.268 E-score.

Regarding GGCTAATA, the binding signal was -0.102 E-score.

Regarding CGTTAAAG, the binding signal is -0.0264 E-score.

Take CGAGGCCC: the binding signal was -0.115 E-score.

In the case of GTTGGCTA, the binding signal is -0.0711 E-score.

Regarding CACTATGG, the binding signal worked out at 0.147 E-score.

As for CGTCGTGC, the binding signal was -0.0538 E-score.

As to AATATGTA, the binding signal was -0.0929 E-score.

As to CTAGCGGC, the binding signal was -0.184 E-score.

GCTCGTAC: the binding signal amounted to 0.0533 E-score.

Regarding AAAGAGGA, the binding signal was 0.0464 E-score.

For GCGTGGTA, the binding signal stood at 0.00169 E-score.

For the sequence ACACCTGT, the binding signal was found to be 0.46 E-score.

On to TCAGCAGA, for which the binding signal is -0.17 E-score.

CCATAGAG: the binding signal was -0.119 E-score.

AAATTCGA: the binding signal was -0.0878 E-score.

With CATCACGA, the binding signal is -0.163 E-score.

With AGTGGTTG, the binding signal is -0.0551 E-score.

As for CAACCCCA, the binding signal came to 0.173 E-score.

On to AATCCTCA, for which the binding signal is -0.143 E-score.

As to GAGTACCC, the binding signal was 0.173 E-score.

GCCTAAGA: the binding signal was -0.261 E-score.

Consider AAATATGC, for which the binding signal was -0.165 E-score.

With ATTTGAGA, the binding signal is -0.0993 E-score.

Consider GCTCTAAA, for which the binding signal is -0.261 E-score.

In the case of CCTTTCCC, the binding signal was -0.0576 E-score.

Turning to AGCAGCTA, the binding signal is -0.0665 E-score.

On to AGATGGGC, for which the binding signal is -0.201 E-score.

For ACTGGGTC, the binding signal was -0.0772 E-score.

CGGTGTTA: the binding signal is 0.485 E-score.

On to GCGCCGTA, for which the binding signal is -0.178 E-score.

Consider ACGACTAA, for which the binding signal is -0.14 E-score.

Take AACCCGGA: the binding signal was determined as 0.201 E-score.

On to GCGTCGCC, for which the binding signal came to 0.015 E-score.

For the sequence TACGGCGA, the binding signal is -0.0361 E-score.

As to CAGCACCG, the binding signal came out at 0.242 E-score.

Turning to AAATTACT, the binding signal is -0.165 E-score.

For CGTATCCA, the binding signal turned out to be 0.159 E-score.

Take CAGCTACC: the binding signal was -0.105 E-score.

Consider ATGAGGAG, for which the binding signal is -0.0501 E-score.

As to AATGTCTA, the binding signal is -0.147 E-score.

Take CCAGCTTA: the binding signal amounted to 0.0911 E-score.

Turning to CCAGACTA, the binding signal was -0.0621 E-score.

ACCTAGAG: the binding signal stood at 0.175 E-score.

For CGACATGC, the binding signal was found to be 0.0968 E-score.

For GACTAACC, the binding signal was -0.16 E-score.

For ACAACGAC, the binding signal is 0.0274 E-score.

With AGCCTCTG, the binding signal was -0.199 E-score.

Consider ACGCATAG, for which the binding signal was -0.036 E-score.

For ACGAGACG, the binding signal was -0.0936 E-score.

Regarding CGACGGCC, the binding signal was -0.139 E-score.

Consider AGAAGGCC, for which the binding signal is -0.35 E-score.

In the case of CTACCCGC, the binding signal was determined as 0.131 E-score.

For the sequence ATTACTGC, the binding signal is -0.0979 E-score.

In the case of AGCAAGCA, the binding signal was -0.261 E-score.

On to GTGCCGCA, for which the binding signal is -0.0225 E-score.

CAGAACGA: the binding signal was determined as 0.133 E-score.

As for ACGAGTCT, the binding signal amounted to 0.102 E-score.

Consider AAACATGT, for which the binding signal was -0.188 E-score.

On to CCTCTGGA, for which the binding signal was -0.0762 E-score.

Consider CTGAGCCA, for which the binding signal was -0.125 E-score.

In the case of ACCCAGAC, the binding signal worked out at 0.14 E-score.

As to TCGAAAGA, the binding signal was -0.222 E-score.

For AAAAGCGA, the binding signal is -0.0478 E-score.

With AAATGCTA, the binding signal is 0.0787 E-score.

Turning to ACCGGGTG, the binding signal was found to be 0.322 E-score.

For the sequence ACCTTGAC, the binding signal came out at 0.024 E-score.

With AGAGTCTA, the binding signal is -0.261 E-score.

CATCGGGC: the binding signal is -0.033 E-score.

In the case of CGGAGTTC, the binding signal is 0.0471 E-score.

Consider ATTATGCA, for which the binding signal is -0.0722 E-score.

As for CCTACTAC, the binding signal was found to be 0.13 E-score.

For the sequence ACCAATAT, the binding signal came out at 0.0298 E-score.

For the sequence ACTCAACA, the binding signal was found to be 0.172 E-score.

On to AGCTACAC, for which the binding signal is 0.435 E-score.

In the case of AGGACTGG, the binding signal is -0.00034 E-score.

With AGCAGGCA, the binding signal was -0.0461 E-score.

AAGCTTCC: the binding signal is -0.314 E-score.

For GAACCTAC, the binding signal is -0.0129 E-score.

On to AAAGGCGG, for which the binding signal amounted to 0.0658 E-score.

With ACAACGCC, the binding signal was 0.0221 E-score.

For AGAGCATC, the binding signal was -0.263 E-score.

Regarding CTCACCCC, the binding signal amounted to 0.0749 E-score.

Turning to AGCCATGG, the binding signal was -0.0321 E-score.

Consider CATGGAGC, for which the binding signal was -0.256 E-score.

For CAGACAGG, the binding signal is -0.037 E-score.

On to GCAGTATA, for which the binding signal was -0.0555 E-score.

With ATTTCTTC, the binding signal was -0.158 E-score.

On to CCCCTCAC, for which the binding signal came to 0.203 E-score.

In the case of ACGGAGAA, the binding signal is -0.0423 E-score.
